# The list shows a part of the results.
# B1: rCNL (Clitocybe nebularis), B2ZRS9 (protein)
# chain: SITPGTYNITNVAYTNRLIDLTGSNPAENTLIIGHHLNKTPSGYGNQQWTLVQLPHTTIYTMQAVNPQSYVRVRDDNLVDGAALVGSQQPTPVSIESAGNSGQFRIKIPNLGLALTLPSDANSTPIVLGEVDETSTNQLWAFESVSAV
# Key:
# Test in all cases: glycan array binding signal (z-score within array); higher = stronger binding
# Details in all cases: glycan notation: IUPAC condensed, linker removed
# [1] = target: Neu5Ac(a2-8)Neu5Ac(a2-3)[Gal(b1-3)GalNAc(b1-4)]Gal(b1-4)Glc
# Summary of the method: (§1)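 Glycan array data were curated from 3228 arrays in the Consortium for Functional Glycomics database and kept only where the protein sequence was available. Glycan names were converted to IUPAC-condensed notation, and columns mapping to the same glycan were averaged. The binding signal is a within-array Z-score, averaged across arrays of the same protein sequence at different concentrations or buffers and across linkers. Negative Z-scores can be read as non-binding.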
# [2] = target: Neu5Ac(a2-8)Neu5Ac(a2-3)[GalNAc(b1-4)]Gal(b1-4)Glc
# Summary of the method: as §1
# [3] = target: Neu5Ac(a2-8)Neu5Ac(a2-8)Neu5Ac
# Summary of the method: as §1
# [4] = target: Neu5Ac(a2-8)Neu5Ac(a2-8)Neu5Ac(a2-3)Gal(b1-4)Glc
# Summary of the method: as §1
# [5] = target: Neu5Ac(a2-8)Neu5Ac(a2-8)Neu5Ac(a2-3)[Gal(b1-3)GalNAc(b1-4)]Gal(b1-4)Glc
# Summary of the method: as §1
# [6] = target: Neu5Ac(a2-8)Neu5Ac(a2-8)Neu5Ac(a2-3)[GalNAc(b1-4)]Gal(b1-4)Glc
# Summary of the method: as §1
# [7] = target: Neu5Ac(a2-8)Neu5Ac(a2-8)Neu5Ac(a2-8)Neu5Ac(a2-3)[GalNAc(b1-4)]Gal(b1-4)Glc
# Summary of the method: as §1
# [8] = target: Neu5Ac(a2-8)Neu5Gc(a2-3)Gal(b1-4)GlcNAc
# Summary of the method: as §1
# [9] = target: Neu5Ac(b2-6)Gal(b1-4)GlcNAc
# Summary of the method: as §1
# Neu5Ac(b2-6)GalNAc = target: Neu5Ac(b2-6)GalNAc
# Summary of the method: as §1
# [10] = target: Neu5Ac9Ac(a2-3)Gal(b1-3)GlcNAc
# Summary of the method: as §1
# [11] = target: Neu5Ac9Ac(a2-3)Gal(b1-4)GlcNAc
# Summary of the method: as §1
# [12] = target: Neu5Ac9Ac(a2-6)Gal(b1-4)GlcNAc
# Summary of the method: as §1
# [13] = target: Neu5Gc(a2-3)Gal(b1-3)GlcNAc
# Summary of the method: as §1
# [14] = target: Neu5Gc(a2-3)Gal(b1-3)[Fuc(a1-4)]GlcNAc
# Summary of the method: as §1
# Neu5Gc(a2-3)Gal(b1-4)Glc = target: Neu5Gc(a2-3)Gal(b1-4)Glc
# Summary of the method: as §1
# [15] = target: Neu5Gc(a2-3)Gal(b1-4)GlcNAc
# Summary of the method: as §1
# [16] = target: Neu5Gc(a2-3)Gal(b1-4)GlcNAc(b1-3)Gal(b1-4)GlcNAc(b1-2)Man(a1-3)[Neu5Gc(a2-3)Gal(b1-4)GlcNAc(b1-3)Gal(b1-4)GlcNAc(b1-2)Man(a1-6)]Man(b1-4)GlcNAc(b1-4)GlcNAc
# Summary of the method: as §1
# [17] = target: Neu5Gc(a2-3)Gal(b1-4)[Fuc(a1-3)]GlcNAc
# Summary of the method: as §1
# [18] = target: Neu5Gc(a2-6)Gal(b1-4)GlcNAc
# Summary of the method: as §1
# Neu5Gc(a2-6)GalNAc = target: Neu5Gc(a2-6)GalNAc
# Summary of the method: as §1
# [19] = target: Neu5Gc(a2-8)Neu5Ac(a2-3)Gal(b1-4)GlcNAc
# Summary of the method: as §1
# [20] = target: Neu5Gc(a2-8)Neu5Gc(a2-3)Gal(b1-4)GlcNAc
# Summary of the method: as §1
# [21] = target: Neu5Gc(a2-8)Neu5Gc(a2-3)Gal(b1-4)GlcNAc(b1-3)Gal(b1-4)GlcNAc
# Summary of the method: as §1
# [22] = target: Neu5Gc(a2-8)Neu5Gc(a2-6)Gal(b1-4)GlcNAc
# Summary of the method: as §1
# [23] = target: Neu5Gc(b2-6)Gal(b1-4)GlcNAc
# Summary of the method: as §1
binder,measurement,setting,value
B1,glycan array binding signal (z-score),[1],-0.224
same,glycan array binding signal (z-score),[2],-0.134
same,glycan array binding signal (z-score),[3],-0.31
same,glycan array binding signal (z-score),[4],-0.3
same,glycan array binding signal (z-score),[5],-0.224
same,glycan array binding signal (z-score),[6],-0.044
same,glycan array binding signal (z-score),[7],-0.044
same,glycan array binding signal (z-score),[8],-0.227
same,glycan array binding signal (z-score),[9],-0.31
same,glycan array binding signal (z-score),Neu5Ac(b2-6)GalNAc,-0.309
same,glycan array binding signal (z-score),[10],-0.299
same,glycan array binding signal (z-score),[11],-0.278
same,glycan array binding signal (z-score),[12],0.312
same,glycan array binding signal (z-score),[13],-0.302
same,glycan array binding signal (z-score),[14],-0.299
same,glycan array binding signal (z-score),Neu5Gc(a2-3)Gal(b1-4)Glc,-0.302
same,glycan array binding signal (z-score),[15],-0.313
same,glycan array binding signal (z-score),[16],-0.209
same,glycan array binding signal (z-score),[17],-0.289
same,glycan array binding signal (z-score),[18],-0.285
same,glycan array binding signal (z-score),Neu5Gc(a2-6)GalNAc,-0.296
same,glycan array binding signal (z-score),[19],-0.227
same,glycan array binding signal (z-score),[20],-0.231
same,glycan array binding signal (z-score),[21],-0.222
same,glycan array binding signal (z-score),[22],-0.225
same,glycan array binding signal (z-score),[23],-0.297
